# Results as given in PubChem BioAssay AID504832 (National Center for Advancing Translational Sciences (NCATS), 2011).
# In all, about 310,000 compounds went through this assay and about 18,000 (5.8%) were called active. Inconclusive means that the source gave no clear call. Such entries were picked first, then a sample of the others. The call rests on the fitted dose curve; in most records, active means well fitted inhibition curve with a large enough effect; inconclusive means small, poorly fitted or top-dose-only effect, or another doubt; inactive means no such curve, though single readings can be large or run the other way. Potencies of inconclusive entries are left out as doubtful fits.
# Experiment: Primary qHTS for delayed death inhibitors of the malarial parasite plastid, 48 hour incubation
# Conditions: P. falciparum luciferase growth in erythrocytes; series mostly up to 28.7 µM; activity change, negative = inhibition: at the top concentration
# How it was run: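 A one-generation exposure of luciferase-tagged malaria parasites in RPMI 1640/Albumax erythrocyte culture, 37 C and 5% CO2. Inhibition is inferred from decreased luminescence after adding detection reagent.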
# On the % scale 0 is the no-effect control and ±100 the full control effect; potency means the concentration at half of the fitted maximal effect; tags describe the fitted curve by direction and shape.
SMILES,Potency,"activity change, negative = inhibition"
Cc1cccn2c(=O)c3cc(C(=O)NCc4ccc(F)cc4)c(=N)n(CC4CCCO4)c3nc12 (configuration not stated),active: 4.15 µM,–
COc1cc(CNc2ccccc2Oc2cc(=O)n(C)c(=O)n2C)cc(OC)c1OC,"inconclusive [inhibitor, partial curve, poor fit]",–
C(=C\c1ccccc1)/C=N/N1CCN(Cc2ccccc2)CC1,–,inactive: 37%
CCC(=O)NCc1c(C)c(C)n(Cc2ccccc2)c1-n1cccc1,"inconclusive [inhibitor, full curve, poor fit]",–
C=CCn1c(COc2cccc(C)c2)nnc1SC(C)C(=O)NC1CC1 (configuration not stated),"inconclusive [inhibitor, single point]",–
CCOC(=O)N1CCN(C(=O)CNC(=O)c2nn(-c3ccc(OC)cc3OC)c(=O)c3ccccc23)CC1,"inconclusive [inhibitor, partial curve, poor fit]",–
Cc1ccc(NC(=O)CCc2c(C)nn(-c3ccc(N4CCCCC4)nn3)c2C)cc1F,–,inactive: 34.4%
O=C1CC(c2ccccc2)=NN1c1ccc([N+](=O)[O-])cc1,"inconclusive [inhibitor, partial curve]",–
Cc1cc(NC(=O)CCC(=O)N(CC(=O)NC2CCCC2)c2ccc(C(C)C)cc2)no1,"inconclusive [inhibitor, full curve, poor fit]",–
CN(C)C(CNC(=O)CCCc1c[nH]c2ccccc12)c1ccco1 (configuration not stated),"inconclusive [inhibitor, single point]",–
O=C(Cc1cccs1)NNC(=S)NC(=O)c1ccco1,"inconclusive [inhibitor, partial curve, poor fit]",–
CCN(CC)c1ccc(-c2nc3cnccn3c2NC2CCCC2)cc1,"inconclusive [inhibitor, single point]",–
CCN1CCN(Cc2ccc(NC(=O)Nc3ccccc3OC)cc2)CC1,–,inactive: 44.8%
COC(=O)C1=C(c2ccccc2OCc2ccccc2)C[C@@H]2CC[C@H]1N2C(=O)NCCc1ccc(F)cc1,active: 10.4 µM,–
O=C(CSc1ccccn1)C12CC3CC(CC(C3)C1)C2,–,inactive: -15.8%
Fc1ccccc1C1c2[nH]c3ccccc3c2CCN1Cc1cccn1-c1ncccn1 (configuration not stated),"inconclusive [inhibitor, single point]",–
CC(Oc1ccccc1)C(=O)Nc1cc(Cl)ccc1-n1cncn1 (configuration not stated),active: 3.7 µM,–
CCn1c(=O)cc(N2CCCCC2)[nH]c1=O,"inconclusive [inhibitor, partial curve]",–
COc1ccc(C(CNC(=O)c2cncc(Br)c2)N(C)C)cc1 (configuration not stated),–,inactive: -2.34%
COc1ccccc1N1CCN(S(=O)(=O)c2ccc3c(c2)CC(C)N3C(C)=O)CC1 (configuration not stated),"inconclusive [inhibitor, partial curve]",–
COCCCNC(=O)C(=O)NCCCOC(C)C,–,inactive: 3.08%
C=CCOC(=O)/C(=C\c1cccc2ccccc12)NC(=O)c1ccccc1,"inconclusive [inhibitor, full curve, poor fit]",–
O=c1cc(CN2CCN(Cc3ccccc3)CC2)c2cc3c(cc2o1)CCC3,"inconclusive [inhibitor, single point]",–
COc1ccc(C)cc1S(=O)(=O)N1CCN(Cc2ccccc2)CC1,–,inactive: -24.7%

SMILES,Potency,"activity change, negative = inhibition"
CC(OC(=O)c1ccc2ncsc2c1)C(=O)NCc1ccccc1 (configuration not stated),–,inactive: 3.82%
Cc1ccc([C@@H]2[C@@H]3C(=O)N(c4ccccc4)C(=O)[C@@H]3[C@]3(C)C(=O)N(Cc4ccccc4)CC(=O)N23)o1,"inconclusive [inhibitor, full curve]",–
CCn1cc(CCCC(=O)NCc2ccc(OC)cc2)c2ccccc21,active: 2.33 µM,–
COc1ccc(Cc2nnc(SCc3c(C)noc3C)n2C2CCCCC2)cc1OC,active: 9.28 µM,–
CC1Cn2c(nnc2-c2cc3ccccc3cc2O)S1 (configuration not stated),active: 1.65 µM,–
Cc1cc(N2CCN(Cc3nc(-c4ccc(Cl)cc4)oc3C)CC2)cc(C)n1,"inconclusive [inhibitor, partial curve]",–
COC(=O)C1=C(C)n2nnnc2NC1c1ccc(Cl)cc1 (configuration not stated),"inconclusive [inhibitor, single point]",–
O=C1CCCC2=C1C(c1ccc(Cl)cc1)C1C(=O)c3ccccc3C1=N2 (configuration not stated),"inconclusive [inhibitor, partial curve, poor fit]",–
COc1ccc(S(=O)(=O)N2CCC(C(=O)N3CCN(c4ccccc4OC)CC3)CC2)cc1,active: 13.1 µM,–
COc1ccc(N(C(=O)Cn2nnc3ccccc32)C(C(=O)NCc2ccco2)c2ccncc2)cc1 (configuration not stated),–,inactive: -12.8%
CCCCCCSc1cccc(-c2nc3ccc(C)cn3c2NC2CCCCC2)c1,active: 9.28 µM,–
Cc1c2ccncc2c(C)c2c1[nH]c1ccccc12,active: 1.04 µM,–
Cc1ccc(N=C(NO)c2cnccc2C(F)(F)F)c(C)c1,–,inactive: 25% [at 0.00184 µM]
CCC(=O)c1ccc(OC(=O)c2cnccn2)cc1,–,inactive: 33.6%
CC[C@@]1(O)C(=O)OCc2c1cc1n(c2=O)Cc2cc3c(NC(=O)CN)cccc3nc2-1,"inconclusive [inhibitor, full curve]",–
C[C@H](NC(=O)c1[nH]cnc1C(=O)Nc1ccc(Cl)cc1)c1ccccc1,"inconclusive [inhibitor, partial curve, poor fit]",–
O=C(O)/C=C/C(=O)NNC(=O)c1ccc(Br)cc1,–,inactive: 11.6%
CCOc1ccc2oc(C(=O)N(C)CCc3ccc(OC)c(OC)c3)c(C)c2c1,"inconclusive [inhibitor, partial curve, poor fit]",–
CC[N+](C)(CC)CC(=O)OCC1C(C)C=C(C)CC1C (configuration not stated),"inconclusive [inhibitor, full curve]",–
O=C1C2CC=C(Cl)CC2C(=O)N1CCC[n+]1ccccc1 (configuration not stated),–,inactive: 2.12%
COc1ccccc1C(=O)NCCC(=O)Nc1ncccc1O,–,inactive: 30%
CCN1CCN(C(c2ccccc2)c2nnnn2Cc2ccccc2)CC1 (configuration not stated),"inconclusive [inhibitor, single point]",–
Cc1cc(C)n2nc(SCc3ncc(-c4ccccc4)o3)nc2n1,–,inactive: -6.82%
